# Experimental data published in the supplement of paper PMC8728848.
# The list shows a part of the results.
# B1: Ficolin B (Rattus norvegicus), P57756 (protein)
# chain: MVLGSAALFVLSLCVTELTLHAADTCPEVKVLDLEGSNKLTILQGCPGLPGALGPKGEAGAKGDRGESGLPGHPGKAGPTGPKGDRGEKGVRGEKGDTGPSQSCATGPRTCKELLTRGYFLTGWYTIYLPDCRPLTVLCDMDTDGGGWTVFQRRIDGTVDFFRDWTSYKQGFGSQLGEFWLGNDNIHALTTQGTNELRVDLADFDGNHDFAKYSSFQIQGEAEKYKLILGNFLGGGAGDSLTSQNNMLFSTKDQDNDQGSSNCAVRYHGAWWYSDCHTSNLNGLYLRGLHKSYANGVNWKSWKGYNYSYKVSEMKVRLI
# Columns and labels:
# Assay in all cases: glycan array binding signal (z-score within array); higher = stronger binding
# Conditions in all cases: glycan notation: IUPAC condensed, linker removed
# [1] = target: Gal(b1-3)[Neu5Ac(a2-6)]GalNAc
# Procedure, shortened: (§1)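 The binding signal is a Z-score computed within each array. Data were drawn from 3228 arrays in the Consortium for Functional Glycomics database, restricted to those with a known protein sequence. Scores were averaged over arrays of the same protein sequence at different concentrations or buffers, and over linkers, and negative values can be taken as non-binding.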
# [2] = target: Gal(b1-3)[Neu5Ac(a2-6)]GlcNAc(b1-6)Gal(b1-4)Glc
# Procedure, shortened: as §1
# [3] = target: Gal(b1-3)[Neu5Ac(b2-6)]GalNAc
# Procedure, shortened: as §1
# [4] = target: Gal(b1-4)GalNAc(a1-3)[Fuc(a1-2)]Gal(b1-4)GlcNAc
# Procedure, shortened: as §1
# [5] = target: Gal(b1-4)GalNAc(b1-3)[Fuc(a1-2)]Gal(b1-4)GlcNAc
# Procedure, shortened: as §1
# Gal(b1-4)Glc = target: Gal(b1-4)Glc
# Procedure, shortened: as §1
# Gal(b1-4)Glc6S = target: Gal(b1-4)Glc6S
# Procedure, shortened: as §1
# Gal(b1-4)GlcNAc = target: Gal(b1-4)GlcNAc
# Procedure, shortened: as §1
# [6] = target: Gal(b1-4)GlcNAc(a1-6)Gal(b1-4)GlcNAc
# Procedure, shortened: as §1
# [7] = target: Gal(b1-4)GlcNAc(b1-2)Man(a1-3)Man(b1-4)GlcNAc(b1-4)GlcNAc
# Procedure, shortened: as §1
# [8] = target: Gal(b1-4)GlcNAc(b1-2)Man(a1-3)[Gal(b1-4)GlcNAc(b1-2)Man(a1-6)]Man(b1-4)GlcNAc(b1-4)GlcNAc
# Procedure, shortened: as §1
# [9] = target: Gal(b1-4)GlcNAc(b1-2)Man(a1-3)[Gal(b1-4)GlcNAc(b1-2)Man(a1-6)]Man(b1-4)GlcNAc(b1-4)[Fuc(a1-6)]GlcNAc
# Procedure, shortened: as §1
# [10] = target: Gal(b1-4)GlcNAc(b1-2)Man(a1-3)[Man(a1-6)]Man(b1-4)GlcNAc(b1-4)GlcNAc
# Procedure, shortened: as §1
# [11] = target: Gal(b1-4)GlcNAc(b1-2)Man(a1-6)Man(b1-4)GlcNAc(b1-4)GlcNAc
# Procedure, shortened: as §1
# [12] = target: Gal(b1-4)GlcNAc(b1-2)Man(a1-6)[Man(a1-3)]Man(b1-4)GlcNAc(b1-4)GlcNAc
# Procedure, shortened: as §1
# [13] = target: Gal(b1-4)GlcNAc(b1-2)[Gal(b1-4)GlcNAc(b1-4)]Man(a1-3)[Gal(b1-4)GlcNAc(b1-2)Man(a1-6)]Man(b1-4)GlcNAc(b1-4)GlcNAc
# Procedure, shortened: as §1
# [14] = target: Gal(b1-4)GlcNAc(b1-3)Gal(b1-3)GlcNAc
# Procedure, shortened: as §1
# [15] = target: Gal(b1-4)GlcNAc(b1-3)Gal(b1-4)Glc
# Procedure, shortened: as §1
# [16] = target: Gal(b1-4)GlcNAc(b1-3)Gal(b1-4)GlcNAc
# Procedure, shortened: as §1
# [17] = target: Gal(b1-4)GlcNAc(b1-3)Gal(b1-4)GlcNAc(b1-3)Gal(b1-4)GlcNAc
# Procedure, shortened: as §1
# [18] = target: Gal(b1-4)GlcNAc(b1-3)Gal(b1-4)[Fuc(a1-3)]GlcNAc(b1-3)Gal(b1-4)[Fuc(a1-3)]GlcNAc
# Procedure, shortened: as §1
# [19] = target: Gal(b1-4)GlcNAc(b1-3)GalNAc
# Procedure, shortened: as §1
# [20] = target: Gal(b1-4)GlcNAc(b1-3)[Gal(b1-4)GlcNAc(b1-6)]Gal(b1-4)GlcNAc
# Procedure, shortened: as §1
# [21] = target: Gal(b1-4)GlcNAc(b1-3)[GlcNAc(b1-6)]Gal(b1-4)GlcNAc
# Procedure, shortened: as §1
# [22] = target: Gal(b1-4)GlcNAc(b1-6)Gal(b1-4)GlcNAc
# Procedure, shortened: as §1
# [23] = target: Gal(b1-4)GlcNAc(b1-6)Gal(b1-4)GlcNAc(b1-6)GalNAc
# Procedure, shortened: as §1
# [24] = target: Gal(b1-4)GlcNAc(b1-6)GalNAc
# Procedure, shortened: as §1
# [25] = target: Gal(b1-4)GlcNAc(b1-6)[Gal(b1-3)]GalNAc
# Procedure, shortened: as §1
# Gal3S(b1-3)GalNAc = target: Gal3S(b1-3)GalNAc
# Procedure, shortened: as §1
# Gal3S(b1-3)GlcNAc = target: Gal3S(b1-3)GlcNAc
# Procedure, shortened: as §1
# [26] = target: Gal3S(b1-3)[Fuc(a1-4)]GlcNAc
# Procedure, shortened: as §1
# Gal3S(b1-4)Glc = target: Gal3S(b1-4)Glc
# Procedure, shortened: as §1
# Gal3S(b1-4)Glc6S = target: Gal3S(b1-4)Glc6S
# Procedure, shortened: as §1
# Gal3S(b1-4)GlcNAc = target: Gal3S(b1-4)GlcNAc
# Procedure, shortened: as §1
# Gal3S(b1-4)GlcNAc6S = target: Gal3S(b1-4)GlcNAc6S
# Procedure, shortened: as §1
# [27] = target: Gal3S(b1-4)[Fuc(a1-3)]Glc
# Procedure, shortened: as §1
# Gal3S4S(b1-4)GlcNAc = target: Gal3S4S(b1-4)GlcNAc
# Procedure, shortened: as §1
# Gal3S6S(b1-4)GlcNAc = target: Gal3S6S(b1-4)GlcNAc
# Procedure, shortened: as §1
binder,measurement,setting,value
B1,glycan array binding signal (z-score),[1],-0.174
same,glycan array binding signal (z-score),[2],-0.138
same,glycan array binding signal (z-score),[3],-0.179
same,glycan array binding signal (z-score),[4],-0.19
same,glycan array binding signal (z-score),[5],-0.2
same,glycan array binding signal (z-score),Gal(b1-4)Glc,-0.191
same,glycan array binding signal (z-score),Gal(b1-4)Glc6S,-0.175
same,glycan array binding signal (z-score),Gal(b1-4)GlcNAc,-0.212
same,glycan array binding signal (z-score),[6],-0.189
same,glycan array binding signal (z-score),[7],-0.198
same,glycan array binding signal (z-score),[8],-0.223
same,glycan array binding signal (z-score),[9],-0.209
same,glycan array binding signal (z-score),[10],-0.056
same,glycan array binding signal (z-score),[11],-0.21
same,glycan array binding signal (z-score),[12],-0.239
same,glycan array binding signal (z-score),[13],-0.185
same,glycan array binding signal (z-score),[14],-0.014
same,glycan array binding signal (z-score),[15],-0.213
same,glycan array binding signal (z-score),[16],-0.192
same,glycan array binding signal (z-score),[17],-0.252
same,glycan array binding signal (z-score),[18],0.105
same,glycan array binding signal (z-score),[19],-0.18
same,glycan array binding signal (z-score),[20],1.56
same,glycan array binding signal (z-score),[21],-0.121
same,glycan array binding signal (z-score),[22],-0.246
same,glycan array binding signal (z-score),[23],-0.222
same,glycan array binding signal (z-score),[24],-0.085
same,glycan array binding signal (z-score),[25],-0.108
same,glycan array binding signal (z-score),Gal3S(b1-3)GalNAc,-0.196
same,glycan array binding signal (z-score),Gal3S(b1-3)GlcNAc,-0.196
same,glycan array binding signal (z-score),[26],-0.233
same,glycan array binding signal (z-score),Gal3S(b1-4)Glc,-0.232
same,glycan array binding signal (z-score),Gal3S(b1-4)Glc6S,-0.122
same,glycan array binding signal (z-score),Gal3S(b1-4)GlcNAc,-0.185
same,glycan array binding signal (z-score),Gal3S(b1-4)GlcNAc6S,-0.2
same,glycan array binding signal (z-score),[27],0.034
same,glycan array binding signal (z-score),Gal3S4S(b1-4)GlcNAc,-0.205
same,glycan array binding signal (z-score),Gal3S6S(b1-4)GlcNAc,-0.23
